Molecular target: T1, Siglec-10Fc (human, UniProt Q96LC7 17-546)
T1 construct: Named only as Siglec-10Fc; not shown: Fc part of Siglec-10Fc
T1 sequence (looked up): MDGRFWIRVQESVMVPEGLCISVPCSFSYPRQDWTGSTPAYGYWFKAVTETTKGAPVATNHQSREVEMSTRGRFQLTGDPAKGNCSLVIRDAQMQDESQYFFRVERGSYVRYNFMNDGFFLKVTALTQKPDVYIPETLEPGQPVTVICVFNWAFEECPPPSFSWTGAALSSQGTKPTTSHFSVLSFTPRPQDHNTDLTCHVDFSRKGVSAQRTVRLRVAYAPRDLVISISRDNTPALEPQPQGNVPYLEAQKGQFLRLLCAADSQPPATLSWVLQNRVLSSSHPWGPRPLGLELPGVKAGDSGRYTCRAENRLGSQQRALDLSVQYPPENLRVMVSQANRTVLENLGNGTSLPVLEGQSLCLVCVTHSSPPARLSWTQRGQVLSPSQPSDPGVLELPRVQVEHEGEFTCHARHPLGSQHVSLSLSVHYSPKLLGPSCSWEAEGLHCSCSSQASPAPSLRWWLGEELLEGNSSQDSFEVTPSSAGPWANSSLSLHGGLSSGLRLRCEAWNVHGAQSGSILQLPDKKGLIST
Experiment: Biacore (SPR): CD24Fc immobilised on the chip, Siglec-10Fc injected at different concentrations; steady-state response against concentration with a fitted curve

B1: CD24Fc fusion protein (mature human CD24 lacking the final polymorphic amino acid, fused to human IgG1 Fc), processed version (Fc fusion)
chain: SETTTGTSSNSSQSTSNSGLAPNPTNATT[here human IgG1 Fc without letters]
notes: The CD24 part is the truncated 30 residue mature form; also called CD24Ig; CD24IgG1
Kd: 162 nM
